Out of some 2,100 compounds screened, about 320 (15%) were called active. The inconclusive results got no clear call from the source; some entries with a clear call stand among them for comparison. Calls follow the shape of the dose curve; as a rule, active = well fitted cell-killing curve with a large enough effect; inconclusive = small, poorly fitted or top-dose-only effect, or effect the other way; inactive = flat fitted curve, though single readings scatter. Potencies beside an inconclusive call are fits to weak or partial responses and may not hold up.
Assay: Viability Counterscreen for CMV-Luciferase Assay of Inhibitors of ATXN expression; also: nearly all actives have a fitted effect of over 55% in size
Conditions: HEK-293 CMV-luciferase cells viability, protease fluorescence, 24 h
Outline: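 HEK-293 cells stably expressing CMV-luciferase, treated 24 hr at 37 °C with compounds (several concentrations). Viability by Gly-Phe-AFC fluorescence (25 uM final, 30 min); reporter by SteadyGlo luminescence after 5 min.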
Potency is read from the fitted curve at half-maximal effect; tags tell the direction and shape of the fitted curve.

**Q.** For `Cc1cccn2c(=O)c3cc(C(=O)NCCN4CCOCC4)c(=N)n(Cc4ccc(F)cc4)c3nc12`, which Potency is on record?
**A.** inconclusive: 31.6 µM [rising, partial curve]

**Q.** With `Cc1ccnn1CC(=O)N/N=C/c1ccc([N+](=O)[O-])s1` as the compound, how does the Potency read?
**A.** inconclusive: 25.1 µM [cytotoxic, single point]

**Q.** For `CC(C)Cn1c(/C=N/Nc2nc3ccccc3[nH]2)nc2ccccc21`, which Potency is on record?
**A.** inactive

**Q.** For `O=C(/C=C/c1ccccc1[N+](=O)[O-])c1ccccc1Br`, which Potency is on record?
**A.** inconclusive: 6.31 µM [cytotoxic, single point]

**Q.** Which Potency does the source give for `COc1ccc(/C(C)=N/NC(=O)c2cccc(S(=O)(=O)N3CCCC3)c2)c(O)c1` here?
**A.** inconclusive: 39.8 µM [rising, single point]

**Q.** For `CC1=C(C(=O)N(C(C)C)C(C)C)CC(CC(=O)NC2CCCC2)C(=O)N1Cc1ccc(C(C)(C)C)cc1` (stereo not drawn), which Potency is on record?
**A.** inconclusive: 28.2 µM [cytotoxic, single point]

**Q.** With `O=C(N/N=C\c1cc(Br)ccc1O)c1ccc(S(=O)(=O)N2CCCCC2)cc1` as the compound, how does the Potency read?
**A.** inactive

**Q.** For `Cc1ccc(S(=O)(=O)c2nc(S(C)(=O)=O)sc2N2CCCCC2C)cc1` (stereo not drawn), which Potency is on record?
**A.** inactive

**Q.** For `COc1ccc(CCNC(=O)c2cc3c(F)cccc3s2)cc1OC`, which Potency is on record?
**A.** inconclusive: 3.98 µM [cytotoxic, partial curve, poor fit]

**Q.** With `Cc1ccc(C)c(N2CCN(C(=O)C34CC5CC(C3)CC(n3nnc(C)n3)(C5)C4)CC2)c1` as the compound, how does the Potency read?
**A.** inconclusive: 15.8 µM [cytotoxic, single point]

**Q.** Which Potency does the source give for `CC(C)(C)OC(=O)CNC(=O)c1[nH]cnc1C(=O)Nc1ccc(CNC(=O)OC(C)(C)C)cc1` here?
**A.** inactive

**Q.** For `CN(C)CCNC(=O)c1ccc(Cl)c2cc3ccccc3nc12`, which Potency is on record?
**A.** inconclusive: 4.47 µM [cytotoxic, full curve, poor fit]

**Q.** Which Potency does the source give for `COc1ccc(CC(N)c2csc(Nc3ccc(C(=O)c4ccccc4)cc3)n2)cc1` (stereo not drawn) here?
**A.** inactive

**Q.** Which Potency does the source give for `Nc1c(C(=O)NCc2ccccc2)c2nc3ccccc3nc2n1-c1ccc2c(c1)OCO2` here?
**A.** inactive

**Q.** Which Potency does the source give for `COc1cccc(/C=N/NC(=O)Cn2nc(C)c([N+](=O)[O-])c2C)c1O` here?
**A.** inconclusive: 3.55 µM [cytotoxic, full curve]

**Q.** With `CN(C)CCNC(=O)c1cccc2nc3cccc(F)c3nc12` as the compound, how does the Potency read?
**A.** inconclusive: 8.91 µM [cytotoxic, partial curve, poor fit]

**Q.** For `C[C@@H]1C[C@@H]2O[C@H]2/C=C\C=C\C(=O)Cc2c(Cl)c(O)cc(O)c2C(=O)O1`, which Potency is on record?
**A.** inconclusive: 3.55 µM [cytotoxic, single point]

**Q.** With `Cc1cc(C)cc(NS(=O)(=O)c2ccc3c(c2)c(=O)n(C)c(=O)n3C)c1` as the compound, how does the Potency read?
**A.** inconclusive: 15.8 µM [cytotoxic, single point]

**Q.** With `COc1cc(OC)c(OC)cc1/C=C1\CCC/C(=C\c2cc(OC)c(OC)cc2OC)C1=O` as the compound, how does the Potency read?
**A.** inconclusive: 6.31 µM [cytotoxic, single point]

**Q.** With `COc1ccc(C(=O)/C=C/c2ccc(OC3CSC3)cc2)cc1OC` as the compound, how does the Potency read?
**A.** inactive

**Q.** Which Potency does the source give for `N=c1ccn(CC(=O)c2ccc(-c3ccccc3)cc2)cc1` here?
**A.** inactive

**Q.** For `O=c1cc(-c2ccccc2Cl)oc2c([N+](=O)[O-])c(O)cc(O)c12`, which Potency is on record?
**A.** inconclusive: 3.16 µM [cytotoxic, single point]

**Q.** With `O=C(c1ccoc1)N1CCN(c2cc(-c3ccco3)nc3cc(-c4ccccc4)nn23)CC1` as the compound, how does the Potency read?
**A.** inactive

**Q.** Which Potency does the source give for `CC1(C)CC(N2CCN(Cc3ccccc3)CC2)=CC(=[N+]2CCCCC2)C1` here?
**A.** inconclusive: 12.6 µM [cytotoxic, partial curve]

**Q.** For `CSc1cccc(NC(=O)c2ccc(CN3CCc4ccccc4C3)cc2)c1`, which Potency is on record?
**A.** inactive

**Q.** With `Cc1c(C(=O)Nc2nccs2)sc2nc(-c3cccs3)cc(C(F)(F)F)c12` as the compound, how does the Potency read?
**A.** inactive

**Q.** Which Potency does the source give for `COC(=O)c1ccc(N2CCOCC2)c(NC(=O)Nc2cccc(OC)c2)c1` here?
**A.** inactive

**Q.** For `C=CCc1cccc(/C=N/NC(=O)c2ccccc2Br)c1O`, which Potency is on record?
**A.** inconclusive: 5.62 µM [cytotoxic, full curve, poor fit]

**Q.** With `C=CCn1c(CNc2ccccc2)nnc1SCC(=O)N/N=C/c1ccccc1O` as the compound, how does the Potency read?
**A.** inconclusive: 1.78 µM [cytotoxic, partial curve]

**Q.** With `CSc1nc(-c2ccc(Cl)cc2)nc(N)c1C#N` as the compound, how does the Potency read?
**A.** inconclusive: 1.58 µM [cytotoxic, full curve]

**Q.** With `COc1ccccc1CNc1nc(NCc2cccc(OC)c2OC)c2sccc2n1` as the compound, how does the Potency read?
**A.** inconclusive: 39.8 µM [cytotoxic, single point]

**Q.** For `CC[n+]1c(/C=C/N(C)c2ccccc2)oc2ccc(F)cc21`, which Potency is on record?
**A.** inconclusive: 28.2 µM [cytotoxic, partial curve, poor fit]

**Q.** With `O=C(CNC(=O)c1ccc(F)cc1)N/N=C/c1cc(Br)ccc1OC(=O)/C=C/c1ccco1` as the compound, how does the Potency read?
**A.** inconclusive: 3.55 µM [cytotoxic, full curve, poor fit]

**Q.** With `O=C(C(Br)=Cc1ccccc1)c1ccccc1` as the compound, how does the Potency read?
**A.** active: 7.94 µM

**Q.** Which Potency does the source give for `CC1CC(Nc2ccccc2)c2ccccc2N1C(=O)c1cccnc1` (stereo not drawn) here?
**A.** inconclusive: 22.4 µM [cytotoxic, single point]

**Q.** With `Cc1ccc2ccc3cccnc3c2n1` as the compound, how does the Potency read?
**A.** inconclusive: 11.2 µM [cytotoxic, partial curve]

**Q.** With `O=C(N/N=C/c1sc(N2CCOCC2)nc1-c1ccccc1)c1ccccc1O` as the compound, how does the Potency read?
**A.** inconclusive: 39.8 µM [rising, single point]

**Q.** Which Potency does the source give for `Cc1ccc(S(=O)(=O)c2cc3cc(Br)ccc3oc2=O)cc1` here?
**A.** inconclusive: 31.6 µM [rising, partial curve]

**Q.** With `Cc1ccc(C(=O)N2CCN(c3ccc(NC(=S)NC(=O)c4cccs4)cc3)CC2)cc1` as the compound, how does the Potency read?
**A.** inactive

**Q.** With `CCCCCc1ccc(OCCCC[n+]2cccc(C)c2)c(CCCCC)c1` as the compound, how does the Potency read?
**A.** inconclusive: 12.6 µM [cytotoxic, partial curve, poor fit]

**Q.** Which Potency does the source give for `CCn1c2ccccc2c2cc(NC(=O)COC(=O)c3cccc(S(=O)(=O)NC)c3)ccc21` here?
**A.** inconclusive: 17.8 µM [cytotoxic, partial curve, poor fit]

**Q.** For `COc1ccc2oc(/C=C/N(C)C)c(C(=O)c3ccc(Cl)cc3)c2c1`, which Potency is on record?
**A.** inconclusive: 25.1 µM [cytotoxic, single point]

**Q.** For `CC(C)C[C@H](NC(=O)c1[nH]cnc1C(=O)Nc1ccc(CNC(=O)OC(C)(C)C)cc1)C(=O)OCc1ccccc1`, which Potency is on record?
**A.** inactive

**Q.** For `CCN(CC)CCCNc1nc2ccccc2c2nc(-c3ccncc3)nn12`, which Potency is on record?
**A.** active: 15.8 µM

**Q.** With `CCc1ccc(N(CC)C(=O)c2ccc3c(Cl)c4c(nc3c2)CCC4)cc1` as the compound, how does the Potency read?
**A.** inactive

**Q.** For `Oc1c(CN2CCOCC2)cc(COCc2ccccc2)c2cccnc12`, which Potency is on record?
**A.** inconclusive: 3.16 µM [cytotoxic, full curve, poor fit]

**Q.** Which Potency does the source give for `CSc1ncnc2c1ncn2CC(=O)C1CCC2C3CCC4=CC(=O)CCC4(C)C3CCC12C` (stereo not drawn) here?
**A.** inconclusive: 17.8 µM [cytotoxic, partial curve, poor fit]

**Q.** With `CCn1c2ccccc2c2cc(NC(=O)COC(=O)c3ccccc3F)ccc21` as the compound, how does the Potency read?
**A.** inactive

**Q.** With `Cc1ccccc1S(=O)(=O)Cc1ccc(C(=O)N2CCN(c3cccc(C)c3C)CC2)o1` as the compound, how does the Potency read?
**A.** inconclusive: 0.708 µM [cytotoxic, full curve, poor fit]

**Q.** Which Potency does the source give for `O=C(NNCc1ccccc1)c1ccccc1` here?
**A.** inactive

**Q.** With `COc1cccc2nc3c(C(=O)NCCN(C)C)cccc3cc12` as the compound, how does the Potency read?
**A.** inconclusive: 35.5 µM [rising, single point]

**Q.** Which Potency does the source give for `O=C(c1ccoc1)N1CCN(c2cc(-c3ccccc3)nc3cc(-c4ccccc4)nn23)CC1` here?
**A.** inconclusive: 15.8 µM [cytotoxic, single point]

**Q.** For `CCCCOc1ccc(CSC(=N)N)cc1Cl`, which Potency is on record?
**A.** inconclusive: 17.8 µM [cytotoxic, single point]

**Q.** With `COc1ccc(OC)c(NC(=O)CSc2nnnn2-c2ccc3c(c2)OCO3)c1` as the compound, how does the Potency read?
**A.** inconclusive: 39.8 µM [cytotoxic, single point]

**Q.** With `COc1ccccc1/C=C\C(=O)NCC(=O)N/N=C/c1cccc(OC)c1O` as the compound, how does the Potency read?
**A.** inconclusive: 11.2 µM [cytotoxic, partial curve, poor fit]

**Q.** With `O=C(N/N=C1\CCCc2c1[nH]c1ccc(Cl)cc21)c1ccncc1` as the compound, how does the Potency read?
**A.** inactive

**Q.** With `COc1ccc(Cc2nnc(N/N=C/c3ccc(O)cc3)[nH]c2=O)cc1OC` as the compound, how does the Potency read?
**A.** inconclusive: 2.51 µM [cytotoxic, partial curve]

**Q.** Which Potency does the source give for `C[C@@H]1CC=C[C@@H]2[C@H]1C(=O)N(Cc1ccccc1)[C@H]2c1ccccc1Br` here?
**A.** inactive

**Q.** For `N=c1c2c(n(Cc3ccc(Br)cc3)c3c1CCC3)CCCC2`, which Potency is on record?
**A.** inconclusive: 3.55 µM [cytotoxic, partial curve]

**Q.** With `Cc1ccc(/C=C2\SC(=S)N(CCCC(=O)Nc3nccs3)C2=O)cc1` as the compound, how does the Potency read?
**A.** inconclusive: 31.6 µM [cytotoxic, single point]

**Q.** For `Cc1ccc(-n2ncc(C(=O)Nc3ccc(Cl)cc3)c2C2CCNCC2)cc1C`, which Potency is on record?
**A.** inconclusive: 35.5 µM [cytotoxic, single point]

**Q.** With `CC(C)C(CCNCc1ccccn1)c1ccc(Cl)cc1` (stereo not drawn) as the compound, how does the Potency read?
**A.** inactive

**Q.** With `OCCN1CCN(C(=S)c2ccc(-c3ccccc3)cc2)CC1` as the compound, how does the Potency read?
**A.** inconclusive: 7.94 µM [cytotoxic, partial curve, poor fit]

**Q.** Which Potency does the source give for `Cc1cc(SCC(=O)OC/C(O)=C(\C#N)c2nc3ccccc3[nH]2)c(C)cc1Br` here?
**A.** inconclusive: 22.4 µM [cytotoxic, single point]

**Q.** Which Potency does the source give for `Nc1c(C(=O)NCc2ccc(F)cc2)c2nc3ccccc3nc2n1CCCN1CCOCC1` here?
**A.** inconclusive: 3.55 µM [rising, partial curve]

**Q.** With `O=C1c2cccc3cc([N+](=O)[O-])cc(c23)C(=O)N1CCN1CCCC1` as the compound, how does the Potency read?
**A.** active: 1.58 µM

**Q.** For `COc1ccc(CNc2ncnc3c2[nH]c2ccccc23)cc1`, which Potency is on record?
**A.** active: 14.1 µM

**Q.** For `O=C(CCSc1nc2ccccc2s1)N/N=C/c1c(O)ccc2ccccc12`, which Potency is on record?
**A.** inconclusive: 3.16 µM [cytotoxic, full curve, poor fit]

From PubChem BioAssay AID1745849 (National Center for Advancing Translational Sciences (NCATS), 2022)
